Test results from PubChem BioAssay AID662 (National Center for Advancing Translational Sciences (NCATS), 2007).
Hit rate of the full screen: of about 71,000 compounds, about 1,800 (2.5%) were called active. Inconclusive means that the source gave no clear call. Such entries were picked first, then a sample of the others. The call rests on the fitted dose curve; in most records, active means well fitted activation curve with a large enough effect in the signal ratio, with a control signal flat (not every such curve was filed as active); inconclusive means small, poorly fitted or top-dose-only effect, or effect the other way, or a change in a side signal; inactive means flat fitted curve, though single readings scatter; the % refers to the signal ratio. Where the call is inconclusive, the potency comes from a doubtful curve fit.

Test: Cell signaling CRE-BLA (Fsk stim); on activity change, negative = inhibition: % of control where 0% means no effect
Settings: CHO CRE-bla reporter (cAMP response element driving beta-lactamase), forskolin EC10, beta-lactamase ratio; activity change, negative = inhibition: at 38.2 µM (top of the series) unless noted
Procedure, shortened: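 CRE-bla CHO reporter cells treated with compound titration plus EC10 NKH 477 (water-soluble forskolin), incubated 3 h at 37 °C; CCF4 loading 2 h at room temperature, 460/530 nm emission ratio read, AC50 values derived for positive or negative modulators.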
Potency means the concentration at half of the fitted maximal effect; tags describe the fitted curve by direction and shape.

Row | Compound | activity change, negative = inhibition | Potency
1 | COc1ccccc1C1=NOC(Cn2c(=O)c3c(ncn3C)n(C)c2=O)C1 (configuration not stated) | inconclusive: 6.99% | –
2 | CCN(c1c(C)n(C)n(-c2ccccc2)c1=O)S(C)(=O)=O | inconclusive: 13.1% [cytotoxic] | –
3 | CN(CC(=O)N1CCN(c2ccccn2)CC1)S(=O)(=O)c1ccc2ccccc2c1 | inconclusive: -20.6% | –
4 | CC[C@H](CN(C)C)C(=O)c1ccco1 | inactive: -6.5% [at 7.6 µM] | –
5 | CC(C)(C)NC(=O)NC(=O)Cn1cc(C(F)(F)F)ccc1=O | – | inconclusive: 20 µM [rising, single point]
6 | CCCCC(=O)Nc1nn(CCC)c2nc3ccccc3cc12 | – | inconclusive: 12.6 µM [rising, partial curve]
7 | Fc1ccc2nc3[nH]c4ccccc4c3nc2c1 | – | active: 7.94 µM
8 | COCCn1c(Sc2ccccc2)nc2c1c(=O)[nH]c(=O)n2C | – | inconclusive: 25.1 µM [rising, single point]
9 | COc1ccccc1OCc1ccc(C(=O)n2nc(C)c(Cl)c2C)o1 | inconclusive: 13.7% | –
10 | O=C(CSCC(=O)N1CCOCC1)Nc1ccccc1 | inactive: 0.0708% | –
11 | Cc1ccc2nc3c(cc(C#N)c(=O)n3-c3nccs3)c(=O)n2c1 | – | inconclusive: 2.51 µM [rising, full curve]
12 | COc1cc(C(=O)N2CCCC(c3nc(-c4cccs4)no3)C2)cc(OC)c1OC (configuration not stated) | – | inconclusive: 20 µM [rising, single point]
13 | COc1cc(CC(=O)OC2CCOC2=O)cc(OC)c1OC (configuration not stated) | inconclusive: -3.52% | –
14 | COc1ccc(OC)c(NC(=O)CSc2nnc(CCCO)n2-c2ccccc2)c1 | – | inconclusive: 15.8 µM [rising, single point]
15 | Cc1cc(C)n2nc(C(=O)Nc3ccc4c(c3)OCO4)nc2n1 | inactive: 5.15% | –
16 | CCOC(=O)CSc1nc2sc(C)c(C)c2c(=O)n1C | – | inconclusive: 12.6 µM [rising, partial curve]
17 | CC(C)Cn1c(SCC(=O)NC2CCCc3ccccc32)nc(O)cc1=O (configuration not stated) | – | inconclusive: 3.16 µM [falling, partial curve]
18 | O=S(=O)(c1cccc(-c2cn3cccnc3n2)c1)N1CCCCCC1 | inactive: 7.35% | –
19 | CCOC(=O)c1c(NC(=O)c2cccs2)sc(C)c1C | – | active: 2.51 µM
20 | CCOC(=O)c1ccccc1NC(=O)CSc1nnc(Cc2cccn2C)n1-c1ccc(C)cc1 | inconclusive: -14.4% | –
21 | Cc1noc(C)c1COC(=O)c1cc(=O)[nH]c2ccccc12 | inconclusive: 23.9% | –
22 | COc1ccc(N(CC(=O)NCc2ccccc2)S(=O)(=O)c2c(C)noc2C)cc1 | inconclusive: -23.4% | –
